Data as given in patent publication US20240016784A1, “Y BOX BINDING PROTEIN 1 INHIBITORS” (Oregon Health & Science University, priority 2020, published 2024).

Test system: OVCAR8 YBX1-shRNA1 cells
Assay: Cell viability assay, transduced OVCAR8 cells
Details: YBX1-shRNA1 and YBX1-shRNA2 vs SC cells
From the text: Cell lines: Human ovarian cancer (OC) OVCAR3, OVCAR4, OVCAR5, OVCAR8, and SKOV-3 cell lines were obtained from the NCI cell line repository (DTP). SH-SY5Y and N27 cell lines were obtained from Dr. Manish Chamoli (Buck Institute, CA, USA). ID8 and Luciferase-tagged ID8 cells were obtained from Dr. Erinn Rankin (Stanford University, CA, USA). Scrambled control (SC), YBX1 knockdown (1 & 2) and mCherry-YBX1 OVCAR8 cell lines were created using lentiviral based transduction and selected using puromycin resistance followed by cell shorting. All OVCAR cells were maintained in RPMI-1640 (Corning, USA; #10-040-CV) supplemented with 10% FBS (Corning, USA; #35-015-CV) and 1% Antibiotic-Antimycotic solution (Gibco, USA; Ser. No. 15/240,062). SKOV3 and ID8 cells were maintained in DMEM media (Corning, USA; #10-013-CV) supplemented with 10% FBS and 1% Antibiotic-Antimycotic solution. All cells were maintained at 37° C. and 5% CO2. SH-SY5Y and N27 cells were maintained in DMEM/F12 media (Hyclone, #SH30525.01) supplemented with 10% FBS and 1% Antibiotic-Antimycotic solution. […]
Cell viability assay: Cell viability was assessed using the standard MTT assay protocol. […] Absorbance at 570 nm for each well was recorded using a multimode plate reader to quantitate MTT crystallization. Each absorbance value was normalized to controls and converted into percent cell viability. […]

Q: How did the “increase of IC50 value by YB-1 knockdown compared to SC” value turn out when `O=C1OCC2=C1C(c1cccc(F)c1)c1cc3c(cc1N2CCO)OCO3` (stereo not shown) [SU056, 9-(3-fluorophenyl)-5-(2-hydroxyethyl)-6,9-dihydro-[1,3]dioxolo[4,5-g]furo[3,4-b]quinolin-8(5H)-one] was run?
A: Its value is about 5 fold.
